According to the supplement of paper PMC8674133:
Numbering of substitutions follows the chain as printed. Recombinant human monoclonal antibodies (heavy:light variable regions). ELISA EC50 on the named antigen, from 10 µg/ml down; IC50 / IC90 against spike pseudovirus on 293T-ACE2 cells, 48 h; lower = stronger. Calls: IC50 above 1,000 ng/ml = non-neutralizing; EC50 above 2,000 ng/ml = non-binder. The source prints 1000 for neutralization that was not reached; it is given as >1000 ng/ml. A few antibodies were first reported in earlier work of the same group.

B1: C1443 (protein)
chain 1: QVQLVESGGGVVQPGRSLRLSCAASGFTLSSHGMNWVRQAPGKGLEWVAVIWYDGSNKYYADSVKGRFTISRDNSKNTLDLQMNSLRAEDTAVYYCARDRMSSSWANFDYWGQGTLVTVSS
chain 2: NFMLTQPHSVSESPGKTVTISCTRSSGSIASNYVQWYQQRPGSSPTTVIYEDNQRPSGVPDRFSGSIDSSSNSASLTISGLKTEDEADYYCQSYDSSKHHVVFGGGTKLTVL
B2: C1442 (protein)
chain 1: EVQLLESGGGLVQPGGSLRLSCAASGFTFSSYAMSWVRQAPGKGLEWVSAISGGGGSTDYADSVKGRFTISRDNSKNTLYLQMNSLRAEDTAVYYCVMDTVLITDRYFDYWGQGSLVTVSS
chain 2: SYELTQPPSVSVSPGQTARITCSGDALPNQYAYWYQQKPGQAPVLVIYKDSERPSGIPERFSGSTSGTTVTLTISGVQAEDEADYYCQSADSSGVVFGGGTKLTVL
B3: C1208 (protein)
chain 1: QVQLQESGPGLVKPSETLSLTCAVSGYSISSDYFWGWIRQPPGKGLEWIGTIYRSGNTYYSPSLKSRVTVSVDTSKNQFSLKLTSVTAADTAVYYCASNKWLRGNFDYWGQGNLVTVSS
chain 2: NFMLTQPHSVSESPGKTVTISCTRSGDNIASNYVQWYQQRPGSSPTTVIYEDNQRPSGVPDRFSGSIDSSSNSASLTISGLKTEDEADYYCQSYDVSNFWVFGGGTKLTVL
B4: C1216 (protein)
chain 1: QVQLQESGPGLVKPSQTLSLTCTVSGGSIRSDDYYWSWIRQPPGKGLEWIGYISYSGSTYKNPSLRSRVTISLDTSKNQFSLKLSSVTAADTAVYYCAREVLTTVGGGNWFDPWGQGTLVTVSS
chain 2: SYELTQPPSVSVAPGKTARITCGGNEIGSKSVHWYQQKPGQAPVLVIYYDSDRPSGIPERFSGSNSGNTATLTISRVEAGDEADYYCQVWDSTSDHHPYVFGTGTKVTVL
B5: C1438 (protein)
chain 1: QVQLVQSGAEVKKPGASVKVSCKASGYTFSSNGISWVRQAPGQGLEWMGWISAYNGNTNYAQKLQGRVTMTTDTSTSTAYMELRSLRSDDTAVYYCARDLGSSGYYDSSDSYVDFDYWGQGTLVTVSS
chain 2: SYELTQPSSVSVSPGQTARITCSGDVLAKKYARWFQQKPGQAPVLVIYKDTERPSGIPERFSGSSSGTTVTLTISGAQVEDEADYYCYSAADNNRVFGGGTKLTVL
B6: C1437 (protein)
chain 1: QVQLVQSGAEVKKPQSSVKVSCTASGGSFRNYAISWVRQAPGQGLEWMGRTIPILGIGNYAQKFQGRVTITADKSTSTAYMQLSSLRSEDTAVYYCARETWYYDRSGYPRSDEYFQYWGQGTLVTVSS
chain 2: QSVLTQPPSVSGAPGQRVTISCTGSSSNIGAGYDVHWYQQLPGTSPKLLIYGNSNRPSGVPDRFSGSKSGTSASLAITGLQAEDEADYYCQSYDSSLSGLVFGGGTKLTVL
B7: C1211 (protein)
chain 1: QVQLVQSGAEVKKPGSSVKVSCKASGGTFSSYGISWVRQAPGQGLEWMGRIIPMFGIVNYAQRFQGRVTITADKSTSTVYMELSSLRSEDTAVYYCARDQWESDYYDNSDYYYVDYWGQGTLVTVSS
chain 2: B6 chain 2 with S45A, G52D, Y89H, S95R, G99D, L100V
B8: C1441 (protein)
chain 1: EVQLVESGGGLVQPGGSLRLSCAASEFTVSSNYMNWVRQAPGKGLEWVSVIYSGGSTFYADSVKGRFTISRDNSKNTLYLQMNSLRVEDTAVYYCARELRGYFDYWGQGTLVTVSS
chain 2: DIQLTQSPSFLSASVGDRVTITCRASQGISSYLAWYQQKPGKAPKLLIYAASTLQSGVPSRFSGSGSGTEFTLTISSLQPEDFATYYCQQLNSYPMYTFGQGTKLEIK
B9: C1217 (protein)
chain 1: EVQLVESGGGLVQPGGSLRLSCAASGFTVSRSYINWVRQAPGKGLEWVSVIYSGGSTHYADSVKGRFIISRDNSKNTVYLQLNSLRAEDTAVYYCARDITIFGVGNYGMDVWGLGTTVTVSS
chain 2: B8 chain 2 with S31N, Y32F, P95R, M96P, Y97W, L105V
B10: C1444 (protein)
chain 1: QVQLVESGGGVVQPGRSLRLSCAASGFTFSSYAIHWVRQAPGKGLEWVAVISYDGSFKYCADSVKGRFTISRDNSKNTLYLQMNSLRAEDTAVYYCARESNHMVTVVFDYWGQGTLVTVSS
chain 2: DIQMTQSPSSLSASVGDRVTITCRASQTISSYLNWYQQKPGKAPKLLIYAASSLQSGVPSRFSGSGSGTDFTLTISSLQPEDFGTYYCQQSYSTLENTFGQGTKLEIK
B11: C2432 (protein)
chain 1: EVQLVESGGGLVQPGGSLRLSCAASGFIFSDHDMHWVRQVPGKGLEWVSVIGSAGDTYYADSVKGRLIISRENVKNSLYLQMNNLRAGDTAIYYCVRGVDFRYCSGGRCFSHYYFDYWGQGTLVTVSS
chain 2: B10 chain 2 with M4L, T20I, S30N, S31R, S53N, S56T, G84A, N97Y
B12: C1214 (protein)
chain 1: EVQLLESGGGLVQPGGSLRLSCAASGFTFSNYAMSWVRQAPGKGLEWVSTISGNGGITHYADSAKGRFTISRENSKNTLYLQMSSLRAEDTAVYYCAKDIGSTIAVEIMEYWGQGTLVTVSS
chain 2: DIQMTQSPSSLSASVGDRVTITCRASQSISRYLNWYQQIPGKAPKLLIYVASSLQSGVPSRFSGSGSGTDFTLTISSLQPEDFATYYCQQSYTTPYTFGQGTKLEIK
B13: C1213 (protein)
chain 1: QVQLVQSGAEVKKPGSSVKVSCKASGGTFSSYAINWVRQAPGQGLEWMGGILPALHIANSTQKFQGRVTITADKSTTTAYMELSSLRSEDTAVYYCARGSFRDPAMWGPMPEKFQHWGQGTLVTVSS
chain 2: DIQMTQSPSSLSASVGDRVTITCRASQSISSYLNWYQQKPGKAPKLLIHAASNLQSGVPPRFSGSGSGTDFTLTISTLQPEDFATYYCQQSDSIPGTFGQGTKLEIK
B14: C1218 (protein)
chain 1: EVQLVESGGGLVQPGGSLRLSCAASGFTFSTYDMHWVRQVTGKGLEWVSAIGTSGDTYYPDSVKGRFTISRENAKNSVYLQMKSLRAEDTAVYYCVRATFDSRNYHNWFDPWGQGTLVTVSS
chain 2: DIQMTQSPSSLSASVGDRVTITCRASLSISNYLNWYQQRPGKAPKLLIYAASSLQSGVPSRFSGSGSGTDFTLTINSLQPEDFATYYCQQGYGTPPWTFGQGTKVEIK
B15: C1439 (protein)
chain 1: EVQLVETGGGLIQPGGSLRLSCAASGIIVSSNYMSWVRQAPGKGLEWVSVIYSGGSTFYADSVKGRFTISRDNSKNTLYLQMNSLRAEDTAVYYCARDRGNDAFDIWGQGTMVTVSS
chain 2: DIQLTQSPSFLSASVGDRVTITCRASQGISSYLAWYQQKPGKAPKLLIYAASTLQSGVPSRFSGSGSGTEFTLTISSLQPEDFATYYCQQLNSYPPSVTFGGGTKVEIK
B16: C1207 (protein)
chain 1: EVQLVESGGGLVQPGGSLRLSCAASGVIVSSNYMNWVRQAPGKGLEWVSVIYSGGSTFYADSVKGRFTISRDNSKNTLYLQMNSLRAEDTAVYYCARESYGMDVWGQGTTVTVSS
chain 2: B15 chain 2 with Y32D, S97R, V98Y, G102Q, V106L

Legend:
[1] = biological target: SARS-CoV-2 Wuhan-Hu-1 spike pseudovirus; experiment: pseudovirus neutralization IC50; higher = weaker neutralization
Description: (§1)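 Single-round luciferase reporter pseudovirus mixed with antibody dilutions and put on 293T-ACE2 cells for 48 h; signal relative to no-antibody wells, four-parameter fit.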

[2] = biological target: SARS-CoV-2 Wuhan-Hu-1 spike pseudovirus; experiment: pseudovirus neutralization IC90; higher = weaker neutralization
Description: as §1

[3] = biological target: SARS-CoV-2 Wuhan-Hu-1 spike receptor-binding domain; experiment: ELISA binding EC50; higher = weaker binding; ELISA of recombinant human antibody on coated antigen, from 10 µg/ml in fourfold dilutions; four-parameter fit.

Row | Binder | pseudovirus neutralization IC50 [1] [µg/mL] | pseudovirus neutralization IC90 [2] [µg/mL] | ELISA binding EC50 [3] [µg/mL]
1 | B1 | 0.474 | > 1 | 0.00277
2 | B2 | > 1 | > 1 | 0.00292
3 | B3 | 0.113 | 0.798 | 0.00374
4 | B4 | 0.536 | > 1 | 0.00264
5 | B5 | > 1 | > 1 | 0.00401
6 | B6 | 0.0724 | 0.489 | 0.00358
7 | B7 | 0.0954 | > 1 | 0.0028
8 | B8 | 0.00794 | 0.103 | 0.00282
9 | B9 | > 1 | > 1 | 0.00328
10 | B10 | > 1 | > 1 | 0.00227
11 | B11 | > 1 | > 1 | 0.00302
12 | B12 | > 1 | > 1 | 0.00243
13 | B13 | 0.0258 | 0.103 | 0.00205
14 | B14 | > 1 | > 1 | 0.00338
15 | B15 | 0.00289 | 0.0871 | 0.00248
16 | B16 | 0.00643 | 0.145 | 0.00201
